# Measurements published in the supplement of paper PMC8728848.
# Some of the results follow.
# B1: OGAN (protein)
# chain: MVQKESQATLEERESELSSNPAASAGASLEPPAAPAPGEDNPAGAGGAAVAGAAGGARRFLCGVVEGFYGRPWVMEQRKELFRRLQKWELNTYLYAPKDDYKHRMFWREMYSVEEAEQLMTLISAAREYEIEFIYAISPGLDITFSNPKEVSTLKRKLDQVSQFGCRSFALLFNDIDHNMCAADKEVFSSFAHAQVSITNEIYQYLGEPETFLFCPTEYCGTFCYPNVSQSPYLRTVGEKLLPGIEVLWTGPKVVSKEIPVESIEEVSKIIKRAPVIWDNIHANDYDQKRLFLGPYKGRSTELIPRLKGVLTNPNCEFEANYVAIHTLATWYKSNMNGVRKDVVMTDSEDSTVSIQIKLENEGSDEDIETDVLYSPQMALKLALTEWLQEFGVPHQY
# Columns and labels:
# Assay in all cases: glycan array binding signal (z-score within array); higher = stronger binding
# Settings in all cases: glycan notation: IUPAC condensed, linker removed
# [1] = molecular target: GlcNAc(b1-4)GlcNAc(b1-4)GlcNAc(b1-4)GlcNAc(b1-4)GlcNAc(b1-4)GlcNAc
# Outline: (§1)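 From the Consortium for Functional Glycomics database, 3228 arrays were curated, keeping only those whose protein sequence was available. Binding is given as a within-array Z-score averaged across arrays sharing a protein sequence and across linkers. Negative Z-scores can be read as non-binding.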
# [2] = molecular target: GlcNAc(b1-4)[GlcNAc(b1-6)]GalNAc
# Outline: as §1
# [3] = molecular target: GlcNAc(b1-6)Gal(b1-4)GlcNAc
# Outline: as §1
# [4] = molecular target: GlcNAc(b1-6)GalNAc
# Outline: as §1
# [5] = molecular target: GlcNAc6S(b1-3)Gal(b1-4)GlcNAc
# Outline: as §1
# [6] = molecular target: Kdn(a2-3)Gal(b1-3)GalNAc
# Outline: as §1
# [7] = molecular target: Kdn(a2-3)Gal(b1-3)GlcNAc
# Outline: as §1
# [8] = molecular target: Kdn(a2-3)Gal(b1-4)Glc
# Outline: as §1
# [9] = molecular target: Kdn(a2-3)Gal(b1-4)GlcNAc
# Outline: as §1
# [10] = molecular target: Kdn(a2-3)Gal(b1-4)[Fuc(a1-3)]GlcNAc
# Outline: as §1
# [11] = molecular target: Kdn(a2-6)Gal(b1-4)GlcNAc
# Outline: as §1
# [12] = molecular target: Man(a1-2)Man(a1-2)Man(a1-3)Man
# Outline: as §1
# [13] = molecular target: Man(a1-2)Man(a1-2)Man(a1-6)[Man(a1-3)]Man
# Outline: as §1
# [14] = molecular target: Man(a1-2)Man(a1-3)Man
# Outline: as §1
# [15] = molecular target: Man(a1-2)Man(a1-3)[Man(a1-2)Man(a1-6)]Man
# Outline: as §1
# [16] = molecular target: Man(a1-2)Man(a1-3)[Man(a1-2)Man(a1-6)]Man(a1-6)[Man(a1-2)Man(a1-2)Man(a1-3)]Man
# Outline: as §1
# [17] = molecular target: Man(a1-2)Man(a1-3)[Man(a1-2)Man(a1-6)]Man(a1-6)[Man(a1-2)Man(a1-2)Man(a1-3)]Man(b1-4)GlcNAc(b1-4)GlcNAc
# Outline: as §1
# [18] = molecular target: Man(a1-2)Man(a1-3)[Man(a1-6)]Man(a1-6)[Man(a1-2)Man(a1-3)]Man(b1-4)GlcNAc(b1-4)GlcNAc
# Outline: as §1
# [19] = molecular target: Man(a1-2)Man(a1-6)[Man(a1-3)]Man(a1-6)[Man(a1-2)Man(a1-2)Man(a1-3)]Man
# Outline: as §1
# [20] = molecular target: Man(a1-2)Man(a1-6)[Man(a1-3)]Man(a1-6)[Man(a1-2)Man(a1-2)Man(a1-3)]Man(b1-4)GlcNAc(b1-4)GlcNAc
# Outline: as §1
# [21] = molecular target: Man(a1-3)[Man(a1-6)]Man
# Outline: as §1
# [22] = molecular target: Man(a1-3)[Man(a1-6)]Man(a1-6)[Man(a1-2)Man(a1-3)]Man(b1-4)GlcNAc(b1-4)GlcNAc
# Outline: as §1
# [23] = molecular target: Man(a1-3)[Man(a1-6)]Man(a1-6)[Man(a1-3)]Man
# Outline: as §1
# [24] = molecular target: Man(a1-3)[Man(a1-6)]Man(a1-6)[Man(a1-3)]Man(b1-4)GlcNAc(b1-4)GlcNAc
# Outline: as §1
# [25] = molecular target: Man(a1-3)[Man(a1-6)]Man(b1-4)GlcNAc(b1-4)GlcNAc
# Outline: as §1
# [26] = molecular target: Man(a1-3)[Man(a1-6)]Man(b1-4)GlcNAc(b1-4)[Fuc(a1-6)]GlcNAc
# Outline: as §1
# [27] = molecular target: Man(a1-6)Man
# Outline: as §1
# [28] = molecular target: Man(b1-4)GlcNAc
# Outline: as §1
# [29] = molecular target: MurNAc(b1-4)GlcNAc
# Outline: as §1
# [30] = molecular target: Neu5Ac(a2-3)Gal
# Outline: as §1
# [31] = molecular target: Neu5Ac(a2-3)Gal(b1-3)GalNAc
# Outline: as §1
# [32] = molecular target: Neu5Ac(a2-3)Gal(b1-3)GalNAc(b1-3)Gal(a1-4)Gal(b1-4)Glc
# Outline: as §1
# [33] = molecular target: Neu5Ac(a2-3)Gal(b1-3)GalNAc(b1-4)Gal(b1-4)Glc
# Outline: as §1
# [34] = molecular target: Neu5Ac(a2-3)Gal(b1-3)GalNAc(b1-4)[Neu5Ac(a2-3)]Gal(b1-4)Glc
# Outline: as §1
# [35] = molecular target: Neu5Ac(a2-3)Gal(b1-3)GalNAc(b1-4)[Neu5Ac(a2-8)Neu5Ac(a2-3)]Gal(b1-4)Glc
# Outline: as §1
# [36] = molecular target: Neu5Ac(a2-3)Gal(b1-3)GalNAc6S
# Outline: as §1
# [37] = molecular target: Neu5Ac(a2-3)Gal(b1-3)GlcNAc
# Outline: as §1
binder,measurement,setting,value
B1,glycan array binding signal (z-score),[1],-0.09
same,glycan array binding signal (z-score),[2],-0.065
same,glycan array binding signal (z-score),[3],-0.024
same,glycan array binding signal (z-score),[4],-0.064
same,glycan array binding signal (z-score),[5],-0.094
same,glycan array binding signal (z-score),[6],-0.053
same,glycan array binding signal (z-score),[7],-0.082
same,glycan array binding signal (z-score),[8],-0.059
same,glycan array binding signal (z-score),[9],-0.083
same,glycan array binding signal (z-score),[10],-0.059
same,glycan array binding signal (z-score),[11],-0.052
same,glycan array binding signal (z-score),[12],-0.08
same,glycan array binding signal (z-score),[13],-0.022
same,glycan array binding signal (z-score),[14],-0.01
same,glycan array binding signal (z-score),[15],-0.051
same,glycan array binding signal (z-score),[16],-0.019
same,glycan array binding signal (z-score),[17],-0.036
same,glycan array binding signal (z-score),[18],-0.061
same,glycan array binding signal (z-score),[19],-0.09
same,glycan array binding signal (z-score),[20],-0.071
same,glycan array binding signal (z-score),[21],-0.093
same,glycan array binding signal (z-score),[22],-0.069
same,glycan array binding signal (z-score),[23],-0.057
same,glycan array binding signal (z-score),[24],-0.071
same,glycan array binding signal (z-score),[25],-0.05
same,glycan array binding signal (z-score),[26],-0.101
same,glycan array binding signal (z-score),[27],-0.073
same,glycan array binding signal (z-score),[28],-0.074
same,glycan array binding signal (z-score),[29],-0.024
same,glycan array binding signal (z-score),[30],-0.063
same,glycan array binding signal (z-score),[31],-0.081
same,glycan array binding signal (z-score),[32],-0.065
same,glycan array binding signal (z-score),[33],-0.065
same,glycan array binding signal (z-score),[34],-0.059
same,glycan array binding signal (z-score),[35],-0.051
same,glycan array binding signal (z-score),[36],-0.079
same,glycan array binding signal (z-score),[37],-0.018
